Among the data in PubChem BioAssay (NCI) are TGI and GI50 values, retold here.

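Protocol summary: plate cells (96-well), add compound at 5 concentrations, incubate 48 h, interpolate endpoints linearly. GI50: concentration for 50% inhibition of growth.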 Certain results were filed several times, with different values. The list is limited to them. There may be further records. For part of these data: The tests behind the records often covered other concentration ranges, which the source does not state; some values may only mark the edge of a range. For part of these data: Values that stand side by side are repeats (runs, samples, wells, individuals or studies). Records carry a tag for their origin. Letters hold for one entry only.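 TGI marks complete inhibition of growth.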 Bounds are passed on as bounds.

What all share (experiment): NCI tumour cell line growth inhibition, 48 h
In assay [1] the test system is BT-549 breast.
The subject of assay [2] is COLO 205 colon.
In assay [3] the test system is MOLT-4 leukemia.
The subject of assay [4] is SF-295 CNS.
In assay [5] the test system is CAKI-1 renal.
For assay [6], the system named is DU-145 prostate.
In assay [7] the test system is EKVX NSCLC.
For assay [8], the system named is HCC-2998 colon.
In assay [9] the test system is HCT-15 colon.
Assay [10] relates to HL-60(TB) leukemia.
The subject of assay [11] is HOP-18 NSCLC.
Assay [12] concerns HOP-62 NSCLC.
Assay [13] concerns HT29 colon.
Assay [14] has as its system IGROV1 ovarian.
The subject of assay [15] is K-562 leukemia.
For assay [16], the system named is LOX IMVI melanoma.
Assay [17] concerns M14 melanoma.
Assay [18] relates to MALME-3M melanoma.
Assay [19] has as its system MCF7 breast.
Assay [20] relates to MDA-N.
Assay [21] concerns NCI-H226 lung.
Assay [22] relates to NCI-H23 lung.
Assay [23] concerns NCI-H460 lung.
Assay [24] concerns NCI-H522 lung.
Assay [25] deals with NCI/ADR-RES ovarian.
The test system of assay [26] is OVCAR-3 ovarian.
In assay [27] the test system is OVCAR-4 ovarian.
In assay [28] the test system is OVCAR-5 ovarian.
Assay [29] concerns P388/ADR leukemia.
The subject of assay [30] is RPMI-8226 leukemia.
Assay [31] deals with SF-268 CNS.
Assay [32] has as its system SF-539 CNS.
In assay [33] the test system is SK-MEL-2 melanoma.
Assay [34] relates to SK-MEL-28 melanoma.
For assay [35], the system named is SK-OV-3 ovarian.
Assay [36] has as its system SN12C renal.
For assay [37], the system named is SNB-19 CNS.
The subject of assay [38] is SNB-75 CNS.
Assay [39] relates to U251 CNS.
In assay [40] the test system is UACC-257 melanoma.
Assay [41] concerns CCRF-CEM leukemia.
Assay [42] deals with HS 578T breast.
In assay [43] the test system is OVCAR-8 ovarian.
Assay [44] concerns PC-3 prostate.
Assay [45] concerns T-47D breast.
The test system of assay [46] is ACHN renal.

In the case of `CC(C)C[C@H](NC(=O)[C@H](Cc1cccc2ccccc12)NC(=O)N1CCOCC1)B(O)O`, the TGI in assay [1] was 4.31 nM and 1.77 µM; in [2], 60.9 nM and > 100 µM; in [3], 8.26 nM and > 100 µM; in assay [4] it was 13.3 nM and 2.47 µM.

As to `N#Cc1cn(C2OC(CO)C(O)C2O)c2ncnc(N)c12` (centres undefined), the TGI in [1] was 2.47 nM [sample A] and > 100 µM [sample B]; in assay [5], 91.2 nM [sample A, mean of 3 tests] and 1.1 µM [sample A, mean of 4 tests] and 548 nM [sample B, 1 test]; in assay [2], 67.2 nM, < 45 nM [sample A] and 10.6 µM [sample B]; in assay [6] it was 0.488 nM [sample A] and > 100 µM [sample B]; in [7], 2.84 µM, 1.02 µM [sample A] and > 100 µM [sample B]; in [8], 0.553 nM [sample A, 1 test] and 934 nM [sample A, mean of 2 tests] and 813 nM [sample A, mean of 5 tests] and 653 nM [sample B, mean of 2 tests]. Moreover, the TGI in assay [9] was 0.768 nM [1 test] and 6.15 µM [mean of 5 tests]; in [10], 703 nM, 51.9 nM, 969 nM [sample A] and 34.1 nM [sample B]; in assay [11], 1.59 µM and 135 nM; in assay [12] it was 0.582 nM [sample A, 1 test] and 1.41 µM, 696 nM [sample A, mean of 4 tests] and > 100 µM [sample B, 1 test]; in [13], 106 nM [sample A, 1 test] and > 20.9 µM [sample A, mean of 3 tests] and > 100 µM [sample B, 1 test]; in assay [14], 1.21 µM, 144 nM [sample A] and > 100 µM [sample B]. The TGI in assay [15] was 0.21 nM [sample A, 1 test] and 637 nM [sample A, mean of 3 tests] and 432 nM [sample A, mean of 5 tests] and > 100 µM [sample B, 1 test]; in assay [16] it was 3.63 µM, < 45 nM [sample A] and > 100 µM [sample B]; in assay [18], 606 nM, 176 nM [sample A] and > 100 µM [sample B]; in [19], 1.92 µM, > 450 µM [sample A, mean of 3 tests] and > 100 µM [sample B, mean of 2 tests]; in assay [20], 1.05 nM [sample A, 1 test] and > 100 µM [sample B, 1 test]; in assay [3], 186 nM, 2.72 µM [sample A] and 267 nM [sample B]. Moreover, the TGI is 1.51 µM, 811 nM [sample A] and > 100 µM [sample B] in assay [21]; 0.62 nM [sample A, 1 test] and 459 nM [sample A, mean of 4 tests] and 819 nM [sample A, mean of 5 tests] and 576 nM [sample B, mean of 2 tests] in assay [22]; 4.5 nM [sample A, 1 test] and > 312 µM [sample A, mean of 4 tests] and 5.8 µM [sample A, mean of 5 tests] and > 100 µM [sample B, mean of 2 tests] in [23]; 0.13 nM [sample A, 1 test] and 83.9 nM, 6.6 µM [sample A, mean of 4 tests] and 1.22 µM [sample B, 1 test] in assay [24]; 2.3 nM [1 test] and 3.78 µM, 131 nM [mean of 4 tests] in [25]; 0.884 nM, 110 nM, 390 nM [sample A] and > 100 µM [sample B] in assay [26]. In addition, the TGI in assay [27] was 942 nM [sample A, mean of 5 tests] and 59.6 nM [sample B, 1 test]; in assay [28], 0.887 nM, 379 nM, 310 nM [sample A] and > 100 µM [sample B]; in assay [29] it was > 450 µM [mean of 2 tests] and 45 nM [mean of 3 tests]; in assay [30] it was 1.44 µM [sample A, mean of 3 tests] and 598 nM [sample A, mean of 5 tests] and > 100 µM [sample B, mean of 2 tests]; in assay [31], 12.8 nM [sample A, 1 test] and 53.6 µM [sample A, mean of 3 tests] and > 100 µM [sample B, 1 test]; in assay [4], 10.5 nM [sample A, 1 test] and 1.4 µM [sample A, mean of 4 tests] and 4.74 µM [sample A, mean of 5 tests] and 26.9 µM [sample B, mean of 2 tests]. The TGI was 19 nM, 5.92 µM, 4.76 µM [sample A] and 6.35 µM [sample B] in assay [32]; 0.235 nM, 142 nM, 107 nM [sample A] and 81.1 nM [sample B] in assay [33]; 155 nM [sample A, 1 test] and 5.43 µM [sample A, mean of 4 tests] and 963 nM [sample A, mean of 5 tests] and 18.1 µM [sample B, 1 test] in assay [34]; 420 nM, 74.5 µM [sample A] and > 100 µM [sample B] in assay [35]; 80.2 nM [sample A, 1 test] and > 38.4 µM [sample A, mean of 3 tests] and 5.42 µM [sample A, mean of 5 tests] and > 100 µM [sample B, mean of 2 tests] in [36]; > 288 µM [sample A, mean of 4 tests] and 6.42 µM [sample A, mean of 5 tests] and > 100 µM [sample B, mean of 2 tests] in assay [37]. Also, the TGI was 1.39 nM [sample A, 1 test] and 108 nM [sample A, mean of 4 tests] and 1.24 µM [sample A, mean of 5 tests] and > 100 µM [sample B, mean of 2 tests] in [38]; 49.5 nM [sample A, 1 test] and > 380 µM [sample A, mean of 5 tests] and > 100 µM [sample B, 1 test] in assay [39]; 170 nM, 2.67 µM, 369 nM [sample A] and > 100 µM [sample B] in assay [40]. Moreover, the GI50 is 0.178 nM [sample A, 1 test] and 18.5 nM [sample B, 1 test] in [17]; 0.157 nM [1 test] and 53.3 nM [mean of 3 tests] in assay [21]; 0.108 nM [1 test] and 53.8 nM [mean of 3 tests] in [40].

On to `CN1CC[C@@H](c2c(O)cc(O)c3c(=O)cc(-c4ccccc4Cl)oc23)[C@@H](O)C1`, for which the TGI in assay [1] is 529 nM, 846 nM, > 11.8 µM; in assay [41], 231 nM [1 test] and 7.58 µM [mean of 6 tests]; in assay [6], 567 nM and > 41.2 µM; in assay [9], 585 nM and > 47.1 µM; in assay [12], 308 nM, 295 nM, > 22.4 µM; in assay [42], 295 nM, 438 nM [1 test] and > 100 µM [mean of 3 tests]. Besides, the TGI was 746 nM [1 test] and > 75.1 µM [mean of 6 tests] in [15]; 333 nM and 32.5 µM in assay [23]; 620 nM [1 test] and > 18.9 µM [mean of 3 tests] in assay [25]; 298 nM, 470 nM, 3.1 µM in [28]; 320 nM and > 46.7 µM in assay [43]; 219 nM, 260 nM, 5.4 µM in assay [44]. Further, the TGI in assay [31] is 331 nM, 472 nM, 10.2 µM; in assay [4], 300 nM, 343 nM [1 test] and 14.6 µM [mean of 6 tests]; in [45], 246 nM, 513 nM [1 test] and > 100 µM [mean of 4 tests].

As for `C[C@@H]1C[C@@H](O)[C@]2(O)O[C@@H]3C[C@@]4(C=O)[C@@H](CC[C@@H]5[C@@H]4CC[C@]4(C)[C@@H](C6=CC(=O)OC6)CC[C@]54O)C[C@H]3O[C@@H]2O1`, the TGI in assay [46] was 55.8 nM, 112 nM, 6.01 nM; in [11], 30.3 nM and 2.07 µM; in [3] it was 9.8 nM, 33.5 nM, 1.69 µM; in [22] it was 10.8 nM, 130 nM, 7.29 nM; in assay [24], 4.16 nM and 106 nM; in assay [26], 4.77 nM and 52.8 nM. The TGI is 27.4 nM, 226 nM, 500 nM in assay [33] and 40.4 nM, 845 nM, 51.1 nM in [35].
